# Assay results reported in the supplement of paper PMC3334620.
# Whole data set: some 33,000 sequences, median “E-score (-0.5 to 0.5)” near -0.041, cut for the highest 2% near 0.37. The list shows a part of the results.
# Target: T1, Ecm22 (UniProt Q05958)
# T1 sequence: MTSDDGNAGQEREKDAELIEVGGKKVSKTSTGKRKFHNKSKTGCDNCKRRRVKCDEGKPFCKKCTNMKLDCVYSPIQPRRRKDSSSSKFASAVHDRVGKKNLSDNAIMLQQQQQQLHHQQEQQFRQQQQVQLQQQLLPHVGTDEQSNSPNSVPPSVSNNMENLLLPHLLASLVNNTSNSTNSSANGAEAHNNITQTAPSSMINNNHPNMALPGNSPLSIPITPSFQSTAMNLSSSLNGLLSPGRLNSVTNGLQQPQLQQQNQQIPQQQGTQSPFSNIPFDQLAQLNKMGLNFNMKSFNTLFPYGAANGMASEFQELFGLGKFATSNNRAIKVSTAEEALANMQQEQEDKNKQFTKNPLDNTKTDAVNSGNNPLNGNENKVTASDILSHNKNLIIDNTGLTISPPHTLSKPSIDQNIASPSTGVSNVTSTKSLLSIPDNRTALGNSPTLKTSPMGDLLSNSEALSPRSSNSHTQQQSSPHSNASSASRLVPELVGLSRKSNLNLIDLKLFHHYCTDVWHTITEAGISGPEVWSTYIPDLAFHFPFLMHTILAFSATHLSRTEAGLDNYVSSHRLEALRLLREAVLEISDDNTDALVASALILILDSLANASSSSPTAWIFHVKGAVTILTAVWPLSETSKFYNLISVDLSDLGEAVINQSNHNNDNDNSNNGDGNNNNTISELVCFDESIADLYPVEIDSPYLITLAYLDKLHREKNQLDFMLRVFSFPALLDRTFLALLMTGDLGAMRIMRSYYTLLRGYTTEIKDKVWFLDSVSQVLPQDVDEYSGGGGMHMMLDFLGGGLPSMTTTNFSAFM
# Test: PBM E-score (8-mer binding enrichment) (E-score (-0.5 to 0.5)); higher = stronger / more preferred TF binding; most listed sequences are background and not binding sites
# Settings: protein concentration: 200 nM; construct: GST-full length
# Method in brief: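 PURExpress in vitro transcription/translation supplied GST-tagged yeast transcription factors, either full-length or DNA-binding domain. Applied at about 100-200 nM to universal all-10-mer Agilent arrays double-stranded by primer extension, the bound protein was detected with fluorescent anti-GST. E-scores, modified Wilcoxon-Mann-Whitney statistics, were given by the Universal PBM Analysis Suite to ungapped eight-base words pooled with their reverse complements after masliner normalisation.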
row,Sequence,PBM E-score
1,GCCCCGGC,-0.158
2,GAGGAATA,0.0494
3,ATTAGGCC,-0.252
4,ATCCCGAG,0.114
5,CATGTTAA,0.08
6,GCCGCGAC,-0.00019
7,GGGCGACA,-0.188
8,AATCATCG,0.157
9,TAGAATGA,-0.323
10,ACCAGTCC,-0.332
11,GTACTACA,0.194
12,ACTTTTTG,-0.147
13,CGAGGGCC,0.216
14,CAATAATC,-0.0306
15,AAAGGAGG,-0.207
16,ATGATCAT,-0.163
17,ACGAACGT,0.307
18,CATAGACG,-0.0708
19,AGGCCGGA,-0.0726
20,GATACACC,0.0562
21,CGGAAACA,0.00854
22,GAAGTCTC,0.00193
23,TAGACCTA,-0.0222
24,CGTCAAGA,-0.0752
25,GCGCGAGA,0.15

row,Sequence,PBM E-score
1,CTTCTTTC,-0.162
2,CTCGGATA,0.346
3,GCTTAAGC,-0.0773
4,TGAGGTAA,-0.264
5,ATGGGGTC,-0.213
6,CGTAAACC,0.366
7,ACGTCACT,-0.036
8,AGCATAGA,-0.164
9,ATGCCCGA,0.105
10,GATTTGGC,-0.0947
11,CTCACTTC,-0.0483
12,ATCGCAAT,0.105
13,CCTCTCGC,0.115
14,TAATATTA,0.233
15,CCACATAA,-0.061
16,CGGCGCAA,-0.0354
17,AACAGTGT,-0.0766
18,CGCGACAA,0.164
19,AGCCACAT,-0.028
20,CCCATTTA,0.00331
21,CGACGATC,0.232
22,CACAAGCC,-0.152
23,CTCAACAA,0.0458
24,ATTCGAGG,0.111
25,GATCCTAA,0.172

row,Sequence,PBM E-score
1,ATCTTTGG,-0.293
2,CCAGAGGG,-0.229
3,ATATTACA,0.146
4,AATATAAA,0.115
5,GACATCCC,-0.0525
6,AGTCTAGC,-0.172
7,GGCAGAAC,-0.117
8,CGGTTGGC,0.223
9,CTTGGTAA,0.0763
10,GAATCGTC,0.14
11,CGTAGCCA,0.254
12,ACGCACGC,0.159
13,CAGTGCAG,0.0521
14,CTAGGTGA,-0.148
15,GCGCTTGA,-0.00426
16,AAACCTGA,-0.0551
17,ACTGAAGG,-0.143
18,TTGGACAA,-0.0897
19,CGTACCAG,0.397
20,AGCCGTCA,-0.0186
21,ATGTACAT,0.0426
22,AGCCACGG,-0.305
23,AACCATGG,-0.0403
24,AGATCGTA,0.389
25,ATGGTAAT,-0.00988

row,Sequence,PBM E-score
1,ATGGGTTA,-0.0614
2,GGCCCGAA,0.13
3,AGAGAGAT,-0.163
4,CCGCTTCA,-0.0146
5,CAGACTTC,-0.22
6,GCAGACAA,-0.0357
7,AGGAGGTA,-0.043
8,AGCACGCC,0.0961
9,AGACCCAC,-0.14
10,GGTCCAAA,-0.244
11,ATTTTAGA,-0.111
12,ACTGCGGA,0.15
13,ACCGCGCT,-0.0866
14,ATCTGCAA,-0.202
15,ACTCAGCT,-0.0865
16,CCGACTGC,0.132
17,ACTCTCGC,0.161
18,AGATATGG,0.054
19,AAAGCCAA,-0.222
20,CCCTGAAA,-0.0815
21,CCTGTAAA,-0.0785
22,GATCGGGC,0.00226
23,CGCGAAGA,0.183
24,CCACGAGC,-0.0179
25,ACTTTTAA,-0.0966

row,Sequence,PBM E-score
1,AGTTTCCC,-0.0723
2,ATGGCGTC,0.0853
3,CCATGTCG,0.121
4,AGCTTCCG,-0.00995
5,AAACGTGC,0.0668
6,CGAATTAA,0.316
7,ACAAGCCC,-0.0755
8,CCGGACCA,0.0404
9,AAGTATAT,0.0727
10,ACTTGCGA,0.148
11,ATCAGTAG,-0.141
12,ATCCGACC,0.145
13,ACAGTTGA,-0.122
14,CATGGACC,-0.192
15,ACCCCATC,-0.155
16,AATTACTG,-0.0409
17,ACTGCGCA,0.0888
18,AGGTAAAG,0.0636
19,CCCATAAC,0.0605
20,AGTTTATA,0.15
21,CCCAGGGA,-0.351
22,CGAAATCC,0.0928
23,TGGAGTAA,-0.00482
24,CGCTAACA,0.0557
25,ATATTTTA,0.0478

row,Sequence,PBM E-score
1,TCTTGCAA,-0.0169
2,ACATATGC,0.111
3,CGAGTATA,0.237
4,AGACCGAC,0.203
5,GCCACCGA,-0.0865
6,AGCACTGA,-0.164
7,ACGTTATC,0.0182
8,ATCCTGAC,-0.0215
9,AACAGCCT,-0.271
10,AGGAGGAT,-0.157
11,AACCCACT,-0.0263
12,GGGGGTGA,-0.256
13,CACCGGGC,-0.27
14,AAGCCTAC,-0.202
15,ATCAATTC,-0.0714
16,GTTAAAAA,0.0597
17,CCCGCTTC,-0.0903
18,CCAGCGAG,0.0176
19,GCTTGTCC,0.0168
20,ACCAGCCT,-0.0699
21,CTTGGAAA,0.104
22,GTTGCGCA,-0.0414
23,ATTCCGTC,-0.256
24,AAGACCTT,-0.0798
25,GTGTCCGA,0.242

row,Sequence,PBM E-score
1,TGTCCAAA,-0.0421
2,GGCAGCCC,-0.121
3,CCATGTCA,-0.236
4,GAAGGCAC,-0.00275
5,GGGGACAC,-0.224
6,CTTAGTGC,-0.115
7,CCTTGGAC,-0.0458
8,AGCAAGCG,0.131
9,AGGATCGA,0.168
10,AGCCGGAG,-0.00796
11,ACAGGCAT,-0.151
12,CCTGAACC,-0.125
13,GTATACAC,0.236
14,CGAAACGC,0.0992
15,AGTAGCGG,-0.0229
16,GAATGCCA,-0.199
17,ACTGTCGA,-0.0436
18,GACGTCGA,0.152
19,ACAGACAG,-0.0953
20,ACCAGTGG,-0.174
21,GGCCTAAA,-0.202
22,ATCCTTTC,-0.175
